Key:
[1] = Conformational and thermal stability on UNit (intrinsic fluorescence BCM and static light scattering); assay type: physicochemical
Description: Conformational stability and propensity to aggregate was determined simultaneously for the GLP-1RA/FGF21 Fc fusion proteins using a UNit (Unchained Labs, CA, USA). The UNit combines the analysis of intrinsic fluorescence of a protein to detect unfolding of the protein and a Static Light Scattering (SLS) measurement in order to investigate the aggregation behavior.
Data were acquired for the fusion proteins at a concentration of 5 mg/mL formulated in phosphate buffer at pH 7.4. A volume of 9 µL of each sample were loaded into a UNi capillary holder and analyzed in triplicate on the UNit. The temperature was increased from 20 to 95° C. at a constant linear rate of 0.3° C./min. The BaryCentric Mean (BCM) indicating the intrinsic fluorescence and SLS signals detected with a 266 nm laser were plotted against the applied temperature in order to obtain melting temperatures (Tm) and aggregation onset temperatures (Tagg). Data were analyzed using the UNit Analysis software v.

[2] = Pharmacokinetics after single subcutaneous administration in mouse; assay type: in vivo, female C57Bl/6 mice; settings: 0.3 mg/kg s.c.
Description: (§1) Plasma concentrations and pharmacokinetic parameters of GLP-1RA/FGF21 Fc fusion proteins were determined after single subcutaneous administration of 0.3 mg/kg in solution to female C57Bl/6 mice or male Cynomolgus monkeys using three different methods. Blood samples were obtained at time points from 30 minutes to 168 hours after dosing.
(§2) Plasma samples were analyzed for the intact FGF21 part of the fusion proteins with an ELISA kit (F1231-K01, Eagle Biosciences, USA). The assay utilized the two-site sandwich technique with two selected antibodies that bound to different epitopes of human intact FGF21. One of the antibodies specifically bound to the N-terminal amino acids (aa 29-35) of human FGF21, and the other antibody specifically bound to the C-terminus (aa 203-209) of human FGF21. Assay standards, controls and unknown samples were added directly to wells of microplate that was coated with an anti-human FGF21 (aa 29-35)-specific antibody. Simultaneously, a horseradish peroxidase conjugated anti-human FGF21 (aa 203-209)-specific antibody was added to each well. After the first incubation period, the antibody on the walls of the microtiter wells captured human FGF21 in the sample and unbound protein in each microtiter well was washed away. A “sandwich” of “anti-FGF21 antibody-human intact FGF21-HRP conjugated tracer antibody” was formed. The unbound tracer antibody was removed in the subsequent washing step. For the detection of the immunocomplex, the well was then incubated with a substrate solution in a timed reaction and then measured in a spectrophotometric microplate reader. The enzymatic activity of the immunocomplex bound to human intact FGF21 on the wall of the microtiter wells was directly proportional to the amount of intact FGF21 in the sample.
The concentration of the full-length GLP-1RA/FGF21 Fc fusion proteins in plasma were determined utilizing an ELISA method. The N-terminus of the fusion proteins were captured by a mouse monoclonal anti-GLP1 antibody (Mesoscale Discovery, MSD). Following blocking the plates with 150 µL of Blocker A (MSD) for 1 hour at room temperature (RT) with gentle shaking and washing 3 times with 300 µL wash buffer 50 µL of diluted plasma samples (standards and PK study samples) were added to each well and the plates were incubated for 1 hour at RT with gentle shaking. […] Following washing 3 times with 300 µL PBS-T 150 µL read buffer was added to the wells.
Plasma samples were analyzed for the intact GLP-1 part of the fusion proteins with a GLP-1 ELISA method. […] Following washing 3 times with 300 µL PBS-T, 150 µL read buffer was added to the wells.
The pharmacokinetic parameters were calculated by the program WinNonlin 6.4 using a non-compartmental model and linear trapezoidal interpolation calculation. […]

[3] = Pharmacokinetics after single subcutaneous administration in non-human primate; assay type: in vivo, male Cynomolgus monkeys; settings: 0.3 mg/kg s.c.
Description: as §1, §2
The concentration of the full-length GLP-1RA/FGF21 Fc fusion proteins in plasma were determined utilizing an ELISA method. The N-terminus of the fusion proteins were captured by a mouse monoclonal anti-GLP1 antibody (Mesoscale Discovery, MSD). Following blocking the plates with 150 µL of Blocker A (MSD) for 1 hour at room temperature (RT) with gentle shaking and washing 3 times with 300 µL wash buffer 50 µL of diluted plasma samples (standards and PK study samples) were added to each well and the plates were incubated for 1 hour at RT with gentle shaking. Following washing 3 times with 300 µL wash buffer, 50 µL of the primer detection antibody (C-terminus rabbit anti-FGF21 antibody, Pineda Antikörper-Service, Berlin, Germany) was added to each well and the plates were incubated for 1 hour at RT. Following washing 3 times with 300 µL wash buffer, 25 µL goat-anti-rabbit antibody (Sulfo-Tag labelled, MSD) diluted in PBS-Tween 0.05% (PBS-T) was added to each well and the plates were incubated for 1 hour at RT. Following washing 3 times with 300 µL PBS-T 150 µL read buffer was added to the wells.
Plasma samples were analyzed for the intact GLP-1 part of the fusion proteins with a GLP-1 ELISA method. The ELISA plates were coated with mouse monoclonal anti-GLP-1 antibody (Mesoscale Discovery, MSD). Following blocking with 150 µL of Blocker A (MSD) for 1 hour at room temperature (RT) with gentle shaking and washing 3 times with 300 µL PBS-T, 50 µL of diluted plasma samples (standards and PK study samples) were added to each well and the plates were incubated for 1 hour at RT with gentle shaking. Following washing 3 times with 300 µL PBS-T, 25 µL of goat anti-human IgG diluted (1/3,333) in PBS-T (Sulfo-Tag labelled, MSD) was added to each well and the plates were incubated for 1 hour at RT. Following washing 3 times with 300 µL PBS-T, 150 µL read buffer was added to the wells.
The pharmacokinetic parameters were calculated by the program WinNonlin 6.4 using a non-compartmental model and linear trapezoidal interpolation calculation. The results are presented in FIGS. 7 and 8 as well as in Table 6.

B1: 8 (protein)
chain: GHGEGTFTSDKSKQLEEEAVRLFIEWLKAGGPKKIRYSGGGGGGGSGGGGSGGGGSA[in this place human IgG1 Fc with changes]GGGSGSAHPIPDSSPLLQFGGQVRQRYLYTDDACQTEAHLEIREDGTVGGAADQSPESLLQLKALKPGVIQILGVKTSRFLCQRPDGALYGSLHFDPEACSFRELLLEDGYNVYQSEAHGLPLHLPGCKSPHRDPAPRGPARFLPLPGLPPAPPEPPGILAPQPPDVGSSDPLSMVYPSQGRSPSYAS
modifications: Fusion Protein
In the case of B1, the Tagg ([1]; UNit SLS 266 nm, 5 mg/mL in phosphate buffer pH 7.4) is reported as 65.3 °C, the Tm ([1]; UNit, 5 mg/mL in phosphate buffer pH 7.4, 20 to 95° C. at 0.3° C./min) is reported as 68.6 °C and the t½ mouse ([2]; assay FGF21 intact) is reported as 17.9 h. It also gave a t½ mouse ([2]; assay full-length) of 13.3 h, a t½ monkey ([3]; assay FGF21 intact) of 33.6 h and a t½ monkey ([3]; assay GLP-1 intact) of 23.7 h. It also gave a t½ monkey ([3]; assay full-length) of 27.6 h.
